According to article PMC3900716:
These are yes or no findings as the source states them, for the method shown. In cells and extracts the contact can be indirect. Some results given as binding are weak or reduced against the parent protein; the word gives no strength. For part of these data: Sequences can lack the tags named with a protein.

Amino acid sequences for entries named in this document (tags omitted). A change or cut given only in a name is not applied to a line headed by its entry. Chains listed by the source or under a name are the forms on record and can include a tag or linker. Residues count along the entry.
RET51 (wild type) (P07949, residues 29-1114): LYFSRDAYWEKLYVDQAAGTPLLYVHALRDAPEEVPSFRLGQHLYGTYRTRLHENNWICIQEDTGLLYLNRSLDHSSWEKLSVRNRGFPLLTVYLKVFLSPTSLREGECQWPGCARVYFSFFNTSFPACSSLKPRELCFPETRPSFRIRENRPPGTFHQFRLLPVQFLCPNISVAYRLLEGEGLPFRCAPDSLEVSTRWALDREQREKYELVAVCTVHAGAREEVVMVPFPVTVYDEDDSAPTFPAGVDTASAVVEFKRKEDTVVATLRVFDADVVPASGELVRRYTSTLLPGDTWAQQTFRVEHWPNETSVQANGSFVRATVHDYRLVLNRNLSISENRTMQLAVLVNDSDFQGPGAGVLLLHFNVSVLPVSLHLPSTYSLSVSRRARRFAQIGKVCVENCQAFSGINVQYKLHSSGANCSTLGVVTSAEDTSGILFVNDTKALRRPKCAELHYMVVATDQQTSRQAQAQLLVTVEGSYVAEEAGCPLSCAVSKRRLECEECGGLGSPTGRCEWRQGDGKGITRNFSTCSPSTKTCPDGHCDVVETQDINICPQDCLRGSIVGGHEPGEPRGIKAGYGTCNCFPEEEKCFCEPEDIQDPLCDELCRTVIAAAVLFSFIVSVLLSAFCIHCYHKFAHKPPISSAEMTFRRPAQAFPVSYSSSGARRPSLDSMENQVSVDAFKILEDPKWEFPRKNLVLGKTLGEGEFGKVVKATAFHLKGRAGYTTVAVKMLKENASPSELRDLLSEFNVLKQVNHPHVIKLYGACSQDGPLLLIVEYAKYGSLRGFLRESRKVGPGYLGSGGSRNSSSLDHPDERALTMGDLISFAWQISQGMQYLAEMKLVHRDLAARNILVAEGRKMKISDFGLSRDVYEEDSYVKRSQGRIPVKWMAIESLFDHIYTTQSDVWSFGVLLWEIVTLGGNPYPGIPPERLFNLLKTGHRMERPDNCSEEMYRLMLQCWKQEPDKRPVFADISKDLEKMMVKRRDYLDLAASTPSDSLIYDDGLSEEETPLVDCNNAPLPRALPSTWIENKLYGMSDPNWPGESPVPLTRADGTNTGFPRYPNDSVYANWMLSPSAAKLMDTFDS
RET9MEN2A (C634R) (P07949-2, form named): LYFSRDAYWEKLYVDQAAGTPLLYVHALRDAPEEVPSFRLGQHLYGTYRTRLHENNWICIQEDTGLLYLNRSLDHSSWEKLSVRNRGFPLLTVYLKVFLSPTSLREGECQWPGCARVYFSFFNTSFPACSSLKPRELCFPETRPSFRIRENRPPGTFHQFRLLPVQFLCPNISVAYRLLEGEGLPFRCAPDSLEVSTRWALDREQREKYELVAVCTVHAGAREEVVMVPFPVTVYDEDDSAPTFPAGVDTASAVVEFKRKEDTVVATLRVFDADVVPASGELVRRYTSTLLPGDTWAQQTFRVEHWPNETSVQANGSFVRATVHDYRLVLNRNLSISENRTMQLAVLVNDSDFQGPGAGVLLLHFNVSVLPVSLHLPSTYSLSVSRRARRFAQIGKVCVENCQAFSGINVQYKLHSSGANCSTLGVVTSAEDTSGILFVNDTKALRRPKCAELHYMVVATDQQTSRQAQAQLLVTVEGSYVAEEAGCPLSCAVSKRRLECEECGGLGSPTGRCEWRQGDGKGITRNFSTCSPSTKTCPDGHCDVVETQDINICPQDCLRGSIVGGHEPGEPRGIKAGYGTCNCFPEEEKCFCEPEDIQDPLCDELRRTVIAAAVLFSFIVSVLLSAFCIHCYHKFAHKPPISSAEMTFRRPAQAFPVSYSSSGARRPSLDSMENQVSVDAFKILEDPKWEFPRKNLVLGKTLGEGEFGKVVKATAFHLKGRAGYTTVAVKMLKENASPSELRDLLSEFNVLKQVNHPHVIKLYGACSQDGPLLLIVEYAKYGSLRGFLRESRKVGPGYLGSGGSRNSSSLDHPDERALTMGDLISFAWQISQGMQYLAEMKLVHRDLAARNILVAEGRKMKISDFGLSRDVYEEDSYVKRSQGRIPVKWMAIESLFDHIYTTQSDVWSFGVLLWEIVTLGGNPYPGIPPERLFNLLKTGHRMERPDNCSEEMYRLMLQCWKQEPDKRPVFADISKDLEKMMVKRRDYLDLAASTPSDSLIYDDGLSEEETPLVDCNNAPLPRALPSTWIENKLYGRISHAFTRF
RET9MEN2A Y900* (P07949-2, form named): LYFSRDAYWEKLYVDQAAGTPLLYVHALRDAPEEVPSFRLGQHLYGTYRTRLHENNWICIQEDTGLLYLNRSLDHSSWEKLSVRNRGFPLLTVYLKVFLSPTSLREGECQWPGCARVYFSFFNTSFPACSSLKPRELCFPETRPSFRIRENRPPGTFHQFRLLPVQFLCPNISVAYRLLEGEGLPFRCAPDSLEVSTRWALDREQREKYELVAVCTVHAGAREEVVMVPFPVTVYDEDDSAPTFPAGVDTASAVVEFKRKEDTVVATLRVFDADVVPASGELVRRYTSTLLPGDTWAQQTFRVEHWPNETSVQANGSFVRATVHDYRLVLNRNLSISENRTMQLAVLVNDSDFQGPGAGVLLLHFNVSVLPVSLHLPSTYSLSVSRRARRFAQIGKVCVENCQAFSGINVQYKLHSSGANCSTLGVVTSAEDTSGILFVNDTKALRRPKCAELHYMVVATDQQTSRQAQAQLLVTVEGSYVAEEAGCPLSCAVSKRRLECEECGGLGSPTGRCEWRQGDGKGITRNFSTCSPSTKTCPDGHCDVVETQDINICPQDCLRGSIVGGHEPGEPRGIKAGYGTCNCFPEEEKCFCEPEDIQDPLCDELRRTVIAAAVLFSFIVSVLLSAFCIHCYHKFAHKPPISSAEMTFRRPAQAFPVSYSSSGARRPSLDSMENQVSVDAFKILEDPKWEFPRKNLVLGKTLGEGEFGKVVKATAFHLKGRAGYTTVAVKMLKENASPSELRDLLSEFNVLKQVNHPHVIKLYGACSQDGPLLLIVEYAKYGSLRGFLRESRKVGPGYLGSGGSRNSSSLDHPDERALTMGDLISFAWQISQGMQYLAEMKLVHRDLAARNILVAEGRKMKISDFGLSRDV
RET9MEN2A Y1015* (P07949-2, form named): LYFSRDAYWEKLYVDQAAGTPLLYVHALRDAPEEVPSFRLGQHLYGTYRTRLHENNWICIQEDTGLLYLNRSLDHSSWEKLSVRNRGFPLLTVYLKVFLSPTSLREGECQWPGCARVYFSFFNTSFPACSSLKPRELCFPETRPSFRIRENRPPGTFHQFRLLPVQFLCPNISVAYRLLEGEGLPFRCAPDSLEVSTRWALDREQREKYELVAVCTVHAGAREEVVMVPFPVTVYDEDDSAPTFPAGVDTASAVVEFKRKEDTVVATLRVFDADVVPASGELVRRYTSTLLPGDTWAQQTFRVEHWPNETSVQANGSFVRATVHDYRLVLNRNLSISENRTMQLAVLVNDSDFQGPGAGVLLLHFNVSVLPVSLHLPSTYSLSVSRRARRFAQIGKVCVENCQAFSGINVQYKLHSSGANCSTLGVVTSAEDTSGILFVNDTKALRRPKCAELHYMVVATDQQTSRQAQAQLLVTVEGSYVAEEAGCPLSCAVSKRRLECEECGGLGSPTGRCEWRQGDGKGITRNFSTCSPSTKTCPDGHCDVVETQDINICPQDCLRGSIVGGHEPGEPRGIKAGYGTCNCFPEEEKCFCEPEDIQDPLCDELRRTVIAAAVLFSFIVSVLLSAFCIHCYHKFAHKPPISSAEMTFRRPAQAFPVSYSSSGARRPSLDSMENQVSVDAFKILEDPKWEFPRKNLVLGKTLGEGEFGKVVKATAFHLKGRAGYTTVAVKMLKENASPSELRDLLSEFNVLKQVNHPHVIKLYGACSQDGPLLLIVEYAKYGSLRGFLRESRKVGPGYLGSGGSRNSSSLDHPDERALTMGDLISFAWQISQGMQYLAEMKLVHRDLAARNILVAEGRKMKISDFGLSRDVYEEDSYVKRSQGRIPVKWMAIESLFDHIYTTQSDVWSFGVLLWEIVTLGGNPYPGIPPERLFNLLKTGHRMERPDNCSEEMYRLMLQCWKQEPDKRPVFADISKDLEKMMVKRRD
RET9MEN2A Y1062F (P07949-2, form named): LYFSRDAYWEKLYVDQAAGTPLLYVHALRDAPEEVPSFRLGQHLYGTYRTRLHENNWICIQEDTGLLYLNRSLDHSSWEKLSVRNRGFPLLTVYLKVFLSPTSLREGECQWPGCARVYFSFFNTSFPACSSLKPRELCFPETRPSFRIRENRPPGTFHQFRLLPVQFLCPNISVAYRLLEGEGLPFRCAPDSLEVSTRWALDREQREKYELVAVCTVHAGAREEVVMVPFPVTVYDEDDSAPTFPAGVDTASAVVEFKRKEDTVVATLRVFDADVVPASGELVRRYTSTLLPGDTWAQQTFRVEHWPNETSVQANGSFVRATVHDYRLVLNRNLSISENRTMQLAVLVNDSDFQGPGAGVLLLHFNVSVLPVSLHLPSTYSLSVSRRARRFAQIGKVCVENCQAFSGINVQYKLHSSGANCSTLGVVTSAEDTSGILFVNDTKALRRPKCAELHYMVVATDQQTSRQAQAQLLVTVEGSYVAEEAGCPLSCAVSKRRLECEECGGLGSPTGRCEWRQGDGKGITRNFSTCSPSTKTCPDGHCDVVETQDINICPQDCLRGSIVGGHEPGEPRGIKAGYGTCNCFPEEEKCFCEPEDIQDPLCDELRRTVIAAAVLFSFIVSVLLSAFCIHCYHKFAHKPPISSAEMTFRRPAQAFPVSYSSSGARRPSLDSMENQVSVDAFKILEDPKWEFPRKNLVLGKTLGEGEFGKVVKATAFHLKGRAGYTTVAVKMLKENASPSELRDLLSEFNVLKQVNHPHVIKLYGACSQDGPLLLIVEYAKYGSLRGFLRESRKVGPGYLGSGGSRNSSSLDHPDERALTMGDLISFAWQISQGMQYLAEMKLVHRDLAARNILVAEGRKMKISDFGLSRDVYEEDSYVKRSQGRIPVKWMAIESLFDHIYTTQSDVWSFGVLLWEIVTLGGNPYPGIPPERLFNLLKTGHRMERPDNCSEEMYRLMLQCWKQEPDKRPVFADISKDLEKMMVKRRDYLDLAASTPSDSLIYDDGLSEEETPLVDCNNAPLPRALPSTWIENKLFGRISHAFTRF
RET9 (wild type) (P07949-2, form named): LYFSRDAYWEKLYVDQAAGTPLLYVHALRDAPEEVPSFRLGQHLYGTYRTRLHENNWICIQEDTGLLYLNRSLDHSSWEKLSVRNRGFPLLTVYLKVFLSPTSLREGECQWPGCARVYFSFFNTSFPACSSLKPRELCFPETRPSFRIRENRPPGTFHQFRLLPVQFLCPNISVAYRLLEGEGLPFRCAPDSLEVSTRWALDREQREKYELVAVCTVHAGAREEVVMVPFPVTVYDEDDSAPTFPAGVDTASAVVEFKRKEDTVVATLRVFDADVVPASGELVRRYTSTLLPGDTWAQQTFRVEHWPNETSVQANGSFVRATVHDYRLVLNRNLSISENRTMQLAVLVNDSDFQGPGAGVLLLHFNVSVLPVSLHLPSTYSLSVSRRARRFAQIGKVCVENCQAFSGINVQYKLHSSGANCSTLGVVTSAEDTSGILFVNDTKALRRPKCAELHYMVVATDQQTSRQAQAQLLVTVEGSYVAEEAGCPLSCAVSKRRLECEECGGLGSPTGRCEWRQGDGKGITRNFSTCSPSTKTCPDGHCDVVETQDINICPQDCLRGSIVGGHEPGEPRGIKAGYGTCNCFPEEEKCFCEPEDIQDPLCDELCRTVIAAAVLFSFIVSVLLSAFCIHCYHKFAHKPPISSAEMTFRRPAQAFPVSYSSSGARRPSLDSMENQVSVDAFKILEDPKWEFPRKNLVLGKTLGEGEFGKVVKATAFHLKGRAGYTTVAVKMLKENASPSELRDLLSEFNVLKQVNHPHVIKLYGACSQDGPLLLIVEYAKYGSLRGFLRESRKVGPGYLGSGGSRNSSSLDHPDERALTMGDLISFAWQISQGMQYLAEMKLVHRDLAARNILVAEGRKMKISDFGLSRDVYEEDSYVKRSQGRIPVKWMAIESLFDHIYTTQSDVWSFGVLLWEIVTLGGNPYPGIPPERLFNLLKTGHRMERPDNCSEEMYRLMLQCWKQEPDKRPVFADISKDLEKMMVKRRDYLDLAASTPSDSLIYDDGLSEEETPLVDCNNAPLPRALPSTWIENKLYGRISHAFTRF

Tests used:
HA-tagged Cbl-c (human) = target: T1, HA-tagged Cbl-c (human) (UniProt Q9ULV8); assay: co-IP; anti-HA affinity matrix, 300 µg whole cell lysate of co-transfected HEK293T cells, immunoblot for Enigma
T1 sequence: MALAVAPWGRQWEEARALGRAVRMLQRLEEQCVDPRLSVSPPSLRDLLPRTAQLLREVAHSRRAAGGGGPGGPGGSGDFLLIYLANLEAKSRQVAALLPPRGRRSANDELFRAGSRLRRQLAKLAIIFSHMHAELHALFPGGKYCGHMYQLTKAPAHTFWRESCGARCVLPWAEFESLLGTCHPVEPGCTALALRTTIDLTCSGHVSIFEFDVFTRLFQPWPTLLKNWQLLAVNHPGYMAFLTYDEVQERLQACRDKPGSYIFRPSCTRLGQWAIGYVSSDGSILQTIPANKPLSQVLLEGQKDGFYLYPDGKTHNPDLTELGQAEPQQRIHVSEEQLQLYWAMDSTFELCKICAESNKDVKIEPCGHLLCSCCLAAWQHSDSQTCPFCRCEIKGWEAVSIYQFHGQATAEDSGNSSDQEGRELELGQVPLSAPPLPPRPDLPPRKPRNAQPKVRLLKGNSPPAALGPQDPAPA

HA-tagged Cbl (human) = HA-tagged Cbl (human) (UniProt P22681); assay: as above
HA-tagged Cbl-b (human) = HA-tagged Cbl-b (human) (UniProt Q13191); assay: as above
[1] = target: RET9MEN2A (C634R) (human) (UniProt P07949); assay: co-IP; rabbit anti-RET with Protein A/G Plus-agarose, 300 µg whole cell lysate of co-transfected HEK293T cells, immunoblot; in Figure 4A cells with 20 nM MG-132 for 5 h before collection
[2] = target: T2, GST-tagged human Cbl-c (human) (UniProt Q9ULV8); assay: pull-down; GST pull-down on Glutathione Sepharose 4B from 300 µg whole cell lysate of co-transfected HEK293T cells, overnight at 4°C, five washes in lysis buffer (10 mM Tris-HCl pH 7.5, 150 mM NaCl, 5 mM EDTA, 1% Triton X-100), immunoblot; in Figure 2B cells with 500 µM Sorafenib or DMSO for 90 min before lysis
T2 sequence: T1 sequence

RET9MEN2A Y900* (human) = RET9MEN2A Y900* (human) (UniProt P07949); assay: co-IP; rabbit anti-RET with Protein A/G Plus-agarose, 300 µg whole cell lysate of co-transfected HEK293T cells, immunoblot; in Figure 4A cells with 20 nM MG-132 for 5 h before collection
RET9MEN2A Y1015* (human) = RET9MEN2A Y1015* (human) (UniProt P07949); assay: as above
RET9MEN2A Y1062F (human) = RET9MEN2A Y1062F (human) (UniProt P07949); assay: as above
[3] = target: T3, endogenous Cbl-c (human (endogenous in CFPac-1)) (UniProt Q9ULV8); assay: co-IP; endogenous proteins; agarose-immobilised rabbit anti-Cbl-c, 20 mg CFPac-1 whole cell lysate (30 mg MB-231 and T47D as controls), immunoblot for Enigma
T3 sequence: T1 sequence

binding [2] | Substance | further results
binds | FLAG-tagged Enigma (from UniProt Q9NR12 1-457) | binding (HA-tagged Cbl-c (human)): binds; binding (HA-tagged Cbl (human)): no binding; binding (HA-tagged Cbl-b (human)): no binding; binding [1]: binds
– | GFP-tagged Enigma (from UniProt Q9NR12 1-457) | binding (RET9MEN2A Y900* (human)): no binding; binding (RET9MEN2A Y1015* (human)): no binding; binding [1]: binds; binding (RET9MEN2A Y1062F (human)): no binding
binds | RET9 (wild type) (from UniProt P07949-2 29-1072) (receptor) | –
binds | RET9MEN2A (C634R) (from UniProt P07949-2 29-1072) (receptor) | –
binds | RET9MEN2A Y900* (from UniProt P07949-2 29-899) (domain or fragment) | –
binds | RET9MEN2A Y1015* (from UniProt P07949-2 29-1014) (domain or fragment) | –
binds | RET9MEN2A Y1062F (from UniProt P07949-2 29-1072) (receptor) | –
binds | RET51 (wild type) (from UniProt P07949-1 29-1114) (receptor) | –
binds | RET51MEN2A (C634R) (from UniProt P07949 29-1114) (receptor) | –
– | endogenous Enigma (from UniProt Q9NR12 1-457) | binding [3]: binds
binds | untagged human Enigma (from UniProt Q9NR12 1-457) | –
